Source: patent EP2161029A1, “Composition comprising peptides” (Unilever N.V., priority 2008, dated 2010)
Part of at least one peptide drawing is inferred or uncertain, most often the ends. Some entries repeat one wording, which the source may state once for all of them. Peptide text beside a SMILES is read from it.

Tested on: ACE
Experiment: ACE inhibition, HPLC-UV at-line assay with substrate HHL
Format: biochemical
Conditions: for residual ACE activity (in % of control) / residual ACE activity (in % of control) 20 µM dipeptide mean / residual ACE activity (in % of control) 200 µM dipeptide mean: substrate Hippuryl-His-Leu, at-line HPLC-UV assay, mean; for IC50: dipeptide 2.5 - 500 µM, substrate Hip-His-Leu (1 mM), read-out: IC50 means ± SE; for IC50 / residual ACE activity (in % of control) 20 µM dipeptide mean / residual ACE activity (in % of control) 200 µM dipeptide mean: n=2

SMILES	residual ACE activity (in % of control) (20 µM dipeptide)	residual ACE activity (in % of control) (200 µM dipeptide)	also measured
CC[C@H](C)[C@H](NC(=O)[C@@H](N)CC(N)=O)C(=O)O [NI] (H-Asn-Ile-OH)	96.1 % of control	96.60 % of control	
CSCC[C@H](NC(=O)[C@@H](N)CC(N)=O)C(=O)O [NM] (H-Asn-Met-OH)	98.2 % of control	99.25 % of control	
NC(=O)CC[C@H](NC(=O)[C@@H](N)CC(N)=O)C(=O)O [NQ] (H-Asn-Gln-OH)	96.7 % of control	100.0 % of control	
C[C@@H](O)[C@H](NC(=O)[C@@H](N)CC(N)=O)C(=O)O [NT] (H-Asn-Thr-OH)	96.9 % of control	97.25 % of control	
CC(C)[C@H](NC(=O)[C@@H](N)CC(N)=O)C(=O)O [NV] (H-Asn-Val-OH)	97.3 % of control	100.0 % of control	
NC(=O)C[C@H](N)C(=O)N[C@@H](Cc1c[nH]c2ccccc12)C(=O)O [NW] (H-Asn-Trp-OH)	86.4 % of control	66.45 % of control	
O=C(O)[C@H](CS)NC(=O)[C@@H]1CCCN1 [PC] (H-Pro-Cys-OH)	87.3 % of control	85.60 % of control	
O=C(O)C[C@H](NC(=O)[C@@H]1CCCN1)C(=O)O [PD] (H-Pro-Asp-OH)	87.1 % of control	89.35 % of control	
CC[C@H](C)[C@H](NC(=O)[C@@H]1CCCN1)C(=O)O [PI] (H-Pro-Ile-OH)	86.5 % of control	83.05 % of control	
NCCCC[C@H](NC(=O)[C@@H]1CCCN1)C(=O)O [PK] (H-Pro-Lys-OH)	87.2 % of control	86.25 % of control	
CSCC[C@H](NC(=O)[C@@H]1CCCN1)C(=O)O [PM] (H-Pro-Met-OH)	89.5 % of control	88.30 % of control	
NC(=O)CC[C@H](NC(=O)[C@@H]1CCCN1)C(=O)O [PQ] (H-Pro-Gln-OH)	89.2 % of control	89.30 % of control	
N=C(N)NCCC[C@H](NC(=O)[C@@H]1CCCN1)C(=O)O [PR] (H-Pro-Arg-OH)	88.9 % of control	87.15 % of control	
CC(C)[C@H](NC(=O)[C@@H]1CCCN1)C(=O)O [PV] (H-Pro-Val-OH)	88.7 % of control	89.40 % of control	
O=C(O)[C@H](Cc1c[nH]c2ccccc12)NC(=O)[C@@H]1CCCN1 [PW] (H-Pro-Trp-OH)			ACE inhibitory activity (in words) (in vitro and in silico): ACE inhibitory activity
O=C(O)[C@H](Cc1ccc(O)cc1)NC(=O)[C@@H]1CCCN1 [PY] (H-Pro-Tyr-OH)	88.1 % of control	87.20 % of control	
C[C@H](NC(=O)[C@@H](N)CCCNC(=N)N)C(=O)O [RA] (H-Arg-Ala-OH)	86.4 % of control	46.65 % of control	
N=C(N)NCCC[C@H](N)C(=O)N[C@@H](Cc1ccccc1)C(=O)O [RF]	88.0 % of control	61.35 % of control	
N=C(N)NCCC[C@H](N)C(=O)N[C@@H](Cc1c[nH]cn1)C(=O)O [RH] (H-Arg-His-OH)	93.1 % of control	72.45 % of control	
CC[C@H](C)[C@H](NC(=O)[C@@H](N)CCCNC(=N)N)C(=O)O [RI] (H-Arg-Ile-OH)	97.3 % of control	89.05 % of control	
N=C(N)NCCC[C@H](N)C(=O)N[C@@H](CCCCN)C(=O)O [RK] (H-Arg-Lys-OH)	98.2 % of control	99.10 % of control	
CSCC[C@H](NC(=O)[C@@H](N)CCCNC(=N)N)C(=O)O [RM] (H-Arg-Met-OH)	95.8 % of control	87.05 % of control	
CC(C)[C@H](NC(=O)[C@@H](N)CCCNC(=N)N)C(=O)O [RV] (H-Arg-Val-OH)	97.5 % of control	96.45 % of control	
N=C(N)NCCC[C@H](N)C(=O)N[C@@H](Cc1ccc(O)cc1)C(=O)O [RY, Arg-Tyr] (H-Arg-Tyr-OH)	77.5 % of control	20.90 % of control	IC50: 113 µM
N[C@@H](CO)C(=O)N[C@@H](CS)C(=O)O [SC] (H-Ser-Cys-OH)	76.1 % of control	85.25 % of control	

SMILES	residual ACE activity (in % of control) (20 µM dipeptide)	residual ACE activity (in % of control) (200 µM dipeptide)	also measured
CC[C@H](C)[C@H](NC(=O)[C@@H](N)CO)C(=O)O [SI] (H-Ser-Ile-OH)	88.7 % of control	87.80 % of control	
CC(C)C[C@H](NC(=O)[C@@H](N)CO)C(=O)O [SL] (H-Ser-Leu-OH)	83.0 % of control	86.90 % of control	
CSCC[C@H](NC(=O)[C@@H](N)CO)C(=O)O [SM] (H-Ser-Met-OH)	90.2 % of control	72.60 % of control	
C[C@@H](O)[C@H](NC(=O)[C@@H](N)CO)C(=O)O [ST] (H-Ser-Thr-OH)	90.4 % of control	78.70 % of control	
CC(C)[C@H](NC(=O)[C@@H](N)CO)C(=O)O [SV] (H-Ser-Val-OH)	89.6 % of control	90.00 % of control	
N[C@@H](CO)C(=O)N[C@@H](Cc1c[nH]c2ccccc12)C(=O)O [SW] (H-Ser-Trp-OH)	76.5 % of control	45.25 % of control	
C[C@@H](O)[C@H](N)C(=O)N[C@@H](Cc1ccccc1)C(=O)O [TF] (H-Thr-Phe-OH)	89.7 % of control	78.15 % of control	
CC[C@H](C)[C@H](NC(=O)[C@@H](N)[C@@H](C)O)C(=O)O [TI] (H-Thr-Ile-OH)	87.1 % of control	85.90 % of control	
CC(C)C[C@H](NC(=O)[C@@H](N)[C@@H](C)O)C(=O)O [TL] (H-Thr-Leu-OH)	87.4 % of control	78.45 % of control	
CSCC[C@H](NC(=O)[C@@H](N)[C@@H](C)O)C(=O)O [TM] (H-Thr-Met-OH)	88.4 % of control	84.40 % of control	
C[C@@H](O)[C@H](N)C(=O)N[C@@H](CC(N)=O)C(=O)O [TN] (H-Thr-Asn-OH)	80.1 % of control	88.35 % of control	
C[C@@H](O)[C@H](N)C(=O)N[C@@H](CO)C(=O)O [TS] (H-Thr-Ser-OH)	90.3 % of control	83.80 % of control	
C[C@@H](O)[C@H](N)C(=O)N[C@H](C(=O)O)[C@@H](C)O [TT] (H-Thr-Thr-OH)			residual ACE activity (in % of control) 20 µM dipeptide mean (20 µM dipeptide): 91.7 % of control; residual ACE activity (in % of control) 200 µM dipeptide mean (200 µM dipeptide): 89.30 % of control
CC(C)[C@H](NC(=O)[C@@H](N)[C@@H](C)O)C(=O)O [TV] (H-Thr-Val-OH)			residual ACE activity (in % of control) 20 µM dipeptide mean (20 µM dipeptide): 87.3 % of control; residual ACE activity (in % of control) 200 µM dipeptide mean (200 µM dipeptide): 89.80 % of control
C[C@@H](O)[C@H](N)C(=O)N[C@@H](Cc1c[nH]c2ccccc12)C(=O)O [TW] (H-Thr-Trp-OH)			residual ACE activity (in % of control) 20 µM dipeptide mean (20 µM dipeptide): 78.3 % of control; residual ACE activity (in % of control) 200 µM dipeptide mean (200 µM dipeptide): 46.50 % of control
C[C@@H](O)[C@H](N)C(=O)N[C@@H](Cc1ccc(O)cc1)C(=O)O [TY] (H-Thr-Tyr-OH)			residual ACE activity (in % of control) 20 µM dipeptide mean (20 µM dipeptide): 79.7 % of control; residual ACE activity (in % of control) 200 µM dipeptide mean (200 µM dipeptide): 59.25 % of control
N[C@@H](Cc1c[nH]c2ccccc12)C(=O)N[C@@H](Cc1c[nH]cn1)C(=O)O [Trp-His] (H-Trp-His-OH)			IC50: 149 µM
CC[C@H](C)[C@H](NC(=O)[C@@H](N)Cc1ccc(O)cc1)C(=O)O [Tyr-Ile] (H-Tyr-Ile-OH)			IC50: 316 µM
N[C@@H](Cc1ccc(O)cc1)C(=O)N[C@@H](Cc1c[nH]c2ccccc12)C(=O)O [Tyr-Trp] (H-Tyr-Trp-OH)			IC50: 107 µM
CC(C)[C@H](N)C(=O)N[C@@H](CC(=O)O)C(=O)O [VD]			residual ACE activity (in % of control) 20 µM dipeptide mean (20 µM dipeptide): 78.6 % of control; residual ACE activity (in % of control) 200 µM dipeptide mean (200 µM dipeptide): 100.0 % of control
CC(C)[C@H](N)C(=O)N[C@@H](Cc1c[nH]cn1)C(=O)O [VH] (H-Val-His-OH)			residual ACE activity (in % of control) 20 µM dipeptide mean (20 µM dipeptide): 77.1 % of control; residual ACE activity (in % of control) 200 µM dipeptide mean (200 µM dipeptide): 67.90 % of control
CC[C@H](C)[C@H](NC(=O)[C@@H](N)C(C)C)C(=O)O [VI] (H-Val-Ile-OH)			residual ACE activity (in % of control) 20 µM dipeptide mean (20 µM dipeptide): 73.8 % of control; residual ACE activity (in % of control) 200 µM dipeptide mean (200 µM dipeptide): 72.90 % of control
CC(C)C[C@H](NC(=O)[C@@H](N)C(C)C)C(=O)O [VL] (H-Val-Leu-OH)			residual ACE activity (in % of control) 20 µM dipeptide mean (20 µM dipeptide): 65.5 % of control; residual ACE activity (in % of control) 200 µM dipeptide mean (200 µM dipeptide): 63.40 % of control
CC(C)[C@H](N)C(=O)N[C@@H](CC(N)=O)C(=O)O [VN] (H-Val-Asn-OH)			residual ACE activity (in % of control) 20 µM dipeptide mean (20 µM dipeptide): 100.0 % of control; residual ACE activity (in % of control) 200 µM dipeptide mean (200 µM dipeptide): 79.25 % of control
